Test results from patent US20190127452A1 (Amgen, published 2019).

What was measured:
Test in all cases: cell-based or functional assay
[1] = target: GS molecular complementation fragment 1B (LZ -- T111 -- C-terminus) (mouse)
[2] = target: GS molecular complementation fragment 2B (LZ -- N105 -- C-terminus) (mouse)
[3] = target: GS molecular complementation fragment 3B (LZ -- N126 -- C-terminus) (mouse)

B1: GS molecular complementation fragment 1A (N-terminus -- E110 -- LZ) (other)
chain: MATSASSHLNKGIKQMYMSLPQGEKVQAMYIWVDGTGEGLRCKTRTLDCEPKCVEELPEWNFDGSSTFQSEGSNSDMYLHPVAMFRDPFRKDPNKLVLCEVFKYNRKPAEGGGGSGGGGGSSDRMKQLEDKVEELLSKVYHLENEVARLKKLVGER
- Days to >90% viability [1]: ~30 days
- Rescue of CHO-K1 GS KO [1]: 2 of 4 transfections

B2: GS molecular complementation fragment 2A (N-terminus -- Y104 -- LZ) (other)
chain: MATSASSHLNKGIKQMYMSLPQGEKVQAMYIWVDGTGEGLRCKTRTLDCEPKCVEELPEWNFDGSSTFQSEGSNSDMYLHPVAMFRDPFRKDPNKLVLCEVFKYGGGGSGGGGGSSDRMKQLEDKVEELLSKVYHLENEVARLKKLVGER
- Days to >90% viability [2]: 18 days
- Rescue of CHO-K1 GS KO [2]: 4 of 4 transfections

B3: GS molecular complementation fragment 3A (N-terminus -- S125 -- LZ) (other)
chain: MATSASSHLNKGIKQMYMSLPQGEKVQAMYIWVDGTGEGLRCKTRTLDCEPKCVEELPEWNFDGSSTFQSEGSNSDMYLHPVAMFRDPFRKDPNKLVLCEVFKYNRKPAETNLRHICKRIMDMVSGGGGSGGGGGSSDRMKQLEDKVEELLSKVYHLENEVARLKKLVGER
- Days to >90% viability [3]: ~24 days
- Rescue of CHO-K1 GS KO [3]: 4 of 4 transfections
